Laboratory results as given in PubChem BioAssay AID651820 (National Center for Advancing Translational Sciences (NCATS), 2012).
In all, about 340,000 compounds went through this assay and about 12,000 (3.5%) were called active. Inconclusive means that the source gave no clear call. Such entries were picked first, then a sample of the others. Calls come from the whole dose curve; as a rule, active = well fitted inhibition curve with a large enough effect; inconclusive = small, poorly fitted or top-dose-only effect, or another doubt; inactive = no such curve, though single readings can be large or run the other way. No potency is given beside an inconclusive call; the fits are too rough.

Assay: qHTS Assay for Inhibitors of Hepatitis C Virus (HCV)
Details: Huh7.5.1 HCVcc-Cre (HCVcc is cell-culture hepatitis C virus) infection, luciferase reporter, 44 h; activity change, negative = inhibition: at 41.8 µM (top of the series) unless noted
Outline: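 A cell-based infection assay in which seeded cells (1,000 per well) receive test compound after 4 h, are inoculated with HCVcc-Cre at approximately 0.5 moi, and are incubated 44 h before luminescence detection.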
% is set by controls: 0 for no effect and ±100 for the full control effect; potency is the fitted concentration of half-maximal effect; tags give direction and shape of the fitted curve.

| SMILES | activity change, negative = inhibition | Potency |
| --- | --- | --- |
| COC(=O)Nc1c(C(=O)OC)cc(OC)c(OC)c1OC | inactive: 19.1% |  |
| COc1cnc(-c2ccccn2)nc1NC(C)C |  | inconclusive [inhibitor, single point] |
| Cc1cc(-c2ccccc2)cc(-c2ccccc2)[n+]1CCc1ccccc1 |  | inconclusive [inhibitor, partial curve] |
| O=C1C=C(Nc2ccc(Cl)cc2)CC(c2ccccc2)C1 (stereo not drawn) |  | inconclusive [inhibitor, full curve] |
| COc1ccccc1Nc1nc(-c2c(C)nc3ncccn23)cs1 |  | active: 11.2 µM |
| CCSC1=C(C#N)C2(CCCC2)C(C#N)=C(N)N1 |  | inconclusive [inhibitor, partial curve, poor fit] |
| O=C(COC(=O)c1ccccc1C(=O)c1ccccc1)NCCc1ccccc1 | inconclusive: -33.2% [inhibitor] |  |
| Nc1nc(=S)n(-c2ccccc2)[nH]1 | inactive: 9.53% |  |
| Cc1nc(Oc2ccccc2)c2oc3ccccc3c2n1 |  | inconclusive [inhibitor, single point] |
| CC(=O)N1CCN(CC(=O)Nc2cc([N+](=O)[O-])ccc2Cl)CC1 | inactive: 18.8% |  |
| COc1cc(C2c3cc4c(cc3C(O)C3COC(=O)C23)OCO4)cc(OC)c1OC (stereo not drawn) |  | inconclusive [inhibitor, partial curve, poor fit] |
| C[C@@]12C(=O)N(c3cccc(Cl)c3)C(=O)N1[C@@H]1c3ccccc3OC[C@@H]1[C@H]2c1ccccc1 |  | inconclusive [inhibitor, partial curve] |
| CSc1cccc(NC(=S)N(Cc2ccccc2)Cc2ccccn2)c1 |  | inconclusive [inhibitor, single point] |
| O=C(Nc1ccc(Oc2ccc(C(F)(F)F)cn2)c(Cl)c1)C1CC1 |  | inconclusive [inhibitor, single point] |
| COc1cccc(N2C(=O)CC(N3CCC(C(N)=O)(N4CCCCC4)CC3)C2=O)c1 (stereo not drawn) | inactive: 10.6% |  |
| CSc1nc2c(cnn2-c2ccc(C)c(C)c2)c(=O)[nH]1 | inactive: 6.21% |  |
| CCN(CC)CCCN(Cc1cc2cc3c(cc2[nH]c1=O)OCO3)C(=S)NCCCOC | inactive: -6.06% |  |
| CSCC[C@H](NC(=O)Cc1c(C)c2c(cc(C)c3c(C)coc32)oc1=O)C(=O)O | inactive: 17.1% |  |
| CC1=CC(C)(C)n2c(O)c(N=NC(N)=S)c3cccc1c32 |  | inconclusive [inhibitor, partial curve, poor fit] |
| O=C(N/N=C\c1ccc(Br)o1)C1COc2ccccc2O1 (stereo not drawn) | inactive: 17.5% |  |
| COc1ccccc1N1CCN(CC(=O)c2c(C)n(C)c3ccccc23)CC1 | inactive: -32.4% |  |
| CCCCn1c(N)c(N(CC(C)C)C(=O)c2cnccn2)c(=O)[nH]c1=O | inactive: 15.1% |  |
| COc1ccc(C(=O)Nc2ccc3nc(N4CCN(C)CC4)cc(C)c3c2)c(OC)c1 |  | inconclusive [inhibitor, partial curve] |
| CC(C)c1ccc(NC(=O)CSc2nc(=O)[nH]c3c2CCCC3)cc1 |  | inconclusive [inhibitor, single point] |

| SMILES | activity change, negative = inhibition | Potency |
| --- | --- | --- |
| Cc1c(C(=O)NCc2ccco2)oc2ccc(Br)cc12 |  | inconclusive [inhibitor, single point] |
| CCOc1ccccc1NC(=O)c1ccc(NC(=O)C2CCCO2)cc1 (stereo not drawn) |  | active: 11.2 µM |
| COc1cccc(NC(=O)C2C3C=CC4(O3)C2C(=O)N(CCCN2CCCC(C)C2)C4C(=O)NC2CCCCC2C)c1 (stereo not drawn) |  | inconclusive [inhibitor, single point] |
| CCn1c(O)c(C2=NCCCC2)c2ccccc21 |  | inconclusive [inhibitor, single point] |
| O=C(CN1C(=O)C2CC=CCC2C1=O)Nc1nnc(C2CC2)s1 (stereo not drawn) | inactive: 1.5% |  |
| COc1cccc(CNC(=O)CCn2ccc3cc(S(=O)(=O)N4CCCC4)ccc32)c1 |  | inconclusive [inhibitor, partial curve, poor fit] |
| COc1cc(C(=O)Oc2ccccc2/C=N/NC(=O)c2ccc(C)cc2)cc(OC)c1OC |  | active: 7.94 µM |
| CCSc1nc2ccccc2c(=O)n1Cc1ccc(F)cc1 |  | inconclusive [inhibitor, single point] |
| CC(=O)c1cccc(NC(=O)CN2C(=O)COc3ccc(S(=O)(=O)N4CCOCC4)cc32)c1 |  | inconclusive [inhibitor, single point] |
| COc1ccccc1CNC(=O)COC(=O)c1ccccc1-c1ccccc1 |  | inconclusive [inhibitor, single point] |
| COc1ccccc1-c1nc2c3ccccc3nc(=S)n2[nH]1 | inactive: 3.97% |  |
| Cc1ccc2oc(C(=O)NCC(c3ccco3)N3CCCC3)c(C)c2c1 (stereo not drawn) |  | active: 31.6 µM |
| Cc1ccccc1/C=c1\s/c(=C\C(=O)C(C)(C)C)[nH]c1=O |  | active: 11.2 µM |
| CC(C)[C@H](NC(=O)c1ccccc1)C(=O)OCC(=O)Nc1sccc1C(N)=O | inconclusive: -34.4% [inhibitor] |  |
| C=C(Cl)COc1ccc2c(CC)cc(=O)oc2c1 |  | active: 8.91 µM |
| COC(=O)c1cn(C(=O)c2ccc(C)cc2C)c2ccccc12 |  | inconclusive [inhibitor, partial curve] |
| Cn1c(=O)c2c(nc(NCCNC(=O)c3ccco3)n2Cc2ccccc2F)n(C)c1=O |  | inconclusive [inhibitor, single point] |
| O=C(CCN1C(=O)COc2ccccc21)NCCN1CCOCC1 | inactive: 1.36% |  |
| Cc1ccc(-c2noc(CCC(=O)NCCCN3CCN(c4cccc(Cl)c4)CC3)n2)cc1 |  | active: 11.2 µM |
| CCN1C/C(=C/c2cccs2)c2nc3ccccc3c(C(=O)O)c2C1 | inactive: 17.6% |  |
| CCc1c(C)sc(NC(=S)NC(C)C2CCCO2)c1C(=O)OC (stereo not drawn) |  | inconclusive [inhibitor, single point] |
| Cc1ccc(S(=O)(=O)N(C)C)cc1NC(=O)C1CCN(C(=O)Nc2ccccc2)CC1 | inconclusive: -92.2% [inhibitor] |  |
| COc1ccc(N(Cc2cc3ccccc3[nH]c2=O)S(=O)(=O)c2ccc(OC)cc2)cc1 | inactive: -21.1% |  |
| O=C(Nc1cc(S(=O)(=O)N2CCOCC2)ccc1N1CCOCC1)c1ccc([N+](=O)[O-])s1 |  | active: 12.6 µM |
